# Test results taken from the supplement of paper PMC4166925.
# ± gives the standard deviation of the averaged measurements. Whole data set: some 33,000 sequences, median “E-score (dimensionless, -0.5 to 0.5)” near -0.049, cut for the highest 2% near 0.37. The list shows a part of the results.
# System: T1, PmTbr T-box DNA-binding domain (GST fusion)
# T1 sequence: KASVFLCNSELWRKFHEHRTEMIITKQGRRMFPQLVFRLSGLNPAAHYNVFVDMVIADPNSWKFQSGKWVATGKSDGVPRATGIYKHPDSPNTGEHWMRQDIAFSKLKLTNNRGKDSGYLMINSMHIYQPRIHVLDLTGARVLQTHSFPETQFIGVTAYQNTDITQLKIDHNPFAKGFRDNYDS
# Experiment: PBM E-score of 8-mer (E-score (dimensionless, -0.5 to 0.5)); Tbr is Tbrain of the sea star Patiria miniata (Pm) or the sea urchin Strongylocentrotus purpuratus (Sp); higher = stronger binding preference; most listed sequences are background and not binding sites
# Settings: the construct has about 5 more residues each side
# Method in brief: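 Each ungapped 8-mer received an enrichment E-score from the Universal PBM Analysis Suite, averaged over duplicate arrays. The proteins were Tbr T-box DNA-binding domains, covering the whole T-box plus about five flanking residues, fused to GST and expressed in BL21 E. coli at 20 °C before glutathione affinity purification. Universal Agilent oligonucleotide arrays were made double-stranded by primer extension and incubated with 200 nM protein in PBS (pH 7.5). The arrays were then scanned and quantified, and every 8-mer was scored from probe intensities.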
row,Sequence,PBM E-score of 8-mer
1,AGGTCCAG,-0.165 ± 0.041
2,ACCATATG,0.075 ± 0.015
3,TAGCCCCA,-0.119 ± 0.0082
4,ACACATGG,0.28 ± 0.018
5,CCCCCTCC,-0.118 ± 0.0016
6,GTGAGGCA,0.0693 ± 0.054
7,CTAAGGAA,-0.129 ± 0.078
8,ATGTGCCC,-0.0261 ± 0.068
9,GAGAACGC,0.224 ± 0.024
10,CCTGAGTC,-0.069 ± 0.067
11,ACCATGTA,0.024 ± 0.022
12,ATTTGGTG,0.12 ± 0.045
13,ATTCCGTA,-0.153 ± 0.013
14,ATCACCGG,-0.319 ± 0.02
15,GCTTAAAC,0.0501 ± 0.0056
16,CCGCATAG,-0.047 ± 0.042
17,CTCGCCAA,0.147 ± 0.018
18,CATTACTC,-0.199 ± 0.05
19,AGGAGCAG,-0.185 ± 0.042
20,AAACCATT,-0.102 ± 0.019
21,GTAATGAA,0.00185 ± 0.052
22,ACGCACCC,0.195 ± 0.0077
23,CTCTGTAC,-0.00281 ± 0.017
24,ATCAGAAT,-0.106 ± 0.065
25,CTACGTTC,-0.172 ± 0.024

row,Sequence,PBM E-score of 8-mer
1,GAACGCTC,0.0583 ± 0.052
2,AGCCCGCC,-0.209 ± 0.066
3,AGCAATCA,-0.188 ± 0.026
4,ATATGACC,-0.0991 ± 0.077
5,CTTCATGA,-0.163 ± 0.081
6,CAGCATGG,-0.0939 ± 0.11
7,GAAATACC,-0.114 ± 0.027
8,GAAGCCCC,-0.376 ± 0.011
9,AGGAGAGG,-0.163 ± 0.055
10,AGGCAGGG,-0.186 ± 0.049
11,ATAGGAAT,-0.328 ± 0.021
12,CAGCGAGC,0.207 ± 0.077
13,GCCCCGCC,-0.0692 ± 0.0097
14,CCTTCATA,0.156 ± 0.061
15,ACTAACGA,0.0528 ± 0.0092
16,CGTCGTGA,-0.026 ± 0.018
17,AGGGGACT,-0.0959 ± 0.02
18,ACCTTTGG,0.0854 ± 0.013
19,GAGTTAGC,0.129 ± 0.053
20,GTGCGCAA,0.097 ± 0.0053
21,CGAACGCG,0.241 ± 0.022
22,TCCCTCGA,-0.134 ± 0.035
23,CGTTTCGC,0.205 ± 0.038
24,GCAACTAA,-0.0834 ± 0.1
25,GTCGTCTA,-0.189 ± 0.028

row,Sequence,PBM E-score of 8-mer
1,CAAGAAGC,-0.102 ± 0.07
2,AGGCCTCA,0.00805 ± 0.0099
3,AGTAAACA,0.0849 ± 0.082
4,CACCCGGA,0.283 ± 0.025
5,CCCCGGAC,-0.207 ± 0.019
6,CAACGGAG,-0.088 ± 0.033
7,CTTACAGC,-0.0711 ± 0.032
8,CCACTCAG,-0.0862 ± 0.14
9,CTTACTAC,-0.168 ± 0.0026
10,ATCGCCCC,0.0187 ± 0.0065
11,GGAGGGAC,-0.204 ± 0.027
12,CAGGACTG,-0.173 ± 0.075
13,ATTTTTGG,-0.0403 ± 0.032
14,ACTAGTGC,0.101 ± 0.0089
15,ACACTAAC,0.334 ± 0.025
16,CACACCCA,0.423 ± 0.012
17,CGATAGAC,-0.0834 ± 0.035
18,GTCTCCAA,-0.243 ± 0.063
19,GTACTAAA,-0.209 ± 0.05
20,CCTCCTAC,0.0114 ± 0.069
21,CCGACGTA,-0.034 ± 0.021
22,AGAGAAGG,-0.0063 ± 0.063
23,ATTGAATC,-0.0765 ± 0.04
24,ATTTCACG,0.319 ± 0.026
25,AGACTAAG,-0.287 ± 0.035

row,Sequence,PBM E-score of 8-mer
1,GAGCTTGA,-0.102 ± 0.069
2,CGGAACCC,-0.314 ± 0.0082
3,ACCTGCTA,0.3 ± 0.014
4,AGTTGAGG,-0.193 ± 0.0083
5,ACTTATCC,-0.264 ± 0.03
6,AAGGTTTC,0.0322 ± 0.0076
7,GCCTGGAC,-0.101 ± 0.011
8,AGGTCGCG,0.237 ± 0.027
9,ACCTACCA,0.228 ± 0.0028
10,CGAGAGGC,0.0743 ± 0.058
11,GCGTCTAA,0.0383 ± 0.092
12,AAATACTC,-0.0913 ± 0.13
13,ATGGCGGG,-0.0261 ± 0.0049
14,CGCTAGAA,0.16 ± 0.025
15,CGGCAGCA,-0.0457 ± 0.033
16,CGACTTCC,-0.183 ± 0.002
17,GCGCTTAA,0.086 ± 0.028
18,TCGTGGCA,0.0904 ± 0.025
19,GGAGTCAC,0.0817 ± 0.017
20,GCCTTTCA,-0.0251 ± 0.074
21,GTCCGCAA,0.0782 ± 0.0017
22,ATGGCAGG,0.0144 ± 0.013
23,AGACAAGG,-0.199 ± 0.026
24,ACTATGAA,-0.14 ± 0.051
25,ATGGGCGA,0.0516 ± 0.067

row,Sequence,PBM E-score of 8-mer
1,CGCAGCTC,0.0937 ± 0.005
2,CCTATTGC,-0.0884 ± 0.063
3,AAATACCT,-0.128 ± 0.096
4,GCATGGGA,-0.253 ± 0.057
5,AAATTCTC,0.123 ± 0.05
6,CGACCTGA,-0.0522 ± 0.11
7,GATCCCAA,-0.244 ± 0.044
8,ACACTGGA,-0.0859 ± 0.03
9,GCTGTATA,0.0268 ± 0.047
10,AACGCCGT,0.174 ± 0.0068
11,AATCAGCG,0.0461 ± 0.05
12,GACATACA,-0.0342 ± 0.031
13,ACTAACTG,0.0889 ± 0.035
14,GCCAGAGA,0.00995 ± 0.026
15,CATGAGGG,-0.236 ± 0.042
16,CATTTGTC,0.0836 ± 0.0065
17,GTAGAGGA,-0.2137 ± 0.00037
18,ACCCTCGG,-0.0772 ± 0.018
19,CATACTGA,-0.21 ± 0.1
20,CCCTTGAG,-0.118 ± 0.033
21,GCCACTGA,0.1436 ± 0.00088
22,ATAACTTC,0.0466 ± 0.081
23,GAAGGTTA,-0.109 ± 0.011
24,AAGGAGGA,-0.298 ± 0.043
25,CCATAACG,-0.0143 ± 0.027

row,Sequence,PBM E-score of 8-mer
1,GAGCCTGA,-0.0616 ± 0.083
2,GGAAAATA,-0.11 ± 0.15
3,AACGTCTA,-0.196 ± 0.0042
4,ACCGCGAT,0.267 ± 0.03
5,AGGCGATC,-0.0105 ± 0.036
6,AAGATCCC,-0.0326 ± 0.008
7,GGATGAGA,-0.203 ± 0.067
8,CGTGGTGC,0.0814 ± 0.034
9,ATTGGTGA,0.205 ± 0.005
10,ATTACACA,0.126 ± 0.063
11,GAGTTCAA,-0.117 ± 0.059
12,CCACATGC,-0.0952 ± 0.051
13,ACTTAGGG,0.0547 ± 0.0052
14,CGGTTTGC,0.07695 ± 0.00059
15,AAAGATTG,-0.0999 ± 0.023
16,GGGCGGCA,-0.0375 ± 0.038
17,CTGAATCC,-0.24 ± 0.035
18,AGCCTCAG,-0.207 ± 0.061
19,AGGAATCG,-0.196 ± 0.029
20,CCGAGCGG,-0.338 ± 0.06
21,CATGGTGC,0.166 ± 0.062
22,GTCATTTA,-0.12 ± 0.017
23,CACCGCGC,0.101 ± 0.062
24,AAGTTTAG,-0.117 ± 0.0039
25,AGGGTTTG,-0.237 ± 0.042

row,Sequence,PBM E-score of 8-mer
1,ATCACACG,0.39 ± 0.0083
2,ATTCTGAA,-0.326 ± 0.016
3,CGGTTTGA,-0.1932 ± 0.0019
4,CAGGAGCA,-0.0597 ± 0.011
5,GCGGCCGA,-0.186 ± 0.046
6,CATCGTCC,-0.2382 ± 0.00093
7,AAGACTGC,-0.312 ± 0.048
8,ACACAGCA,0.128 ± 0.013
9,TAAATAGA,-0.149 ± 0.035
10,AGCGACTG,-0.08637 ± 0.00016
11,AACAGACA,0.122 ± 0.024
12,AGATGCAA,-0.111 ± 0.021
13,AACAGCAG,-0.082 ± 0.056
14,CAATTCCG,0.0504 ± 0.045
15,GACAGACC,-0.00978 ± 0.051
16,AGATTCTC,0.0818 ± 0.056
17,ATCACGAC,0.0587 ± 0.036
18,AACAATAG,0.134 ± 0.014
19,CTGATCAG,-0.064 ± 0.014
20,CGTATCAA,-0.227 ± 0.023
21,GCACTTGA,0.206 ± 0.031
22,TGATTCCA,-0.261 ± 0.013
23,ACACCTTA,0.4762 ± 0.00075
24,ATGCGCTC,-0.196 ± 0.08
25,CACATGTC,0.198 ± 0.0032

row,Sequence,PBM E-score of 8-mer
1,ACATAAGA,-0.11 ± 0.064
2,ATTGTCGA,0.0764 ± 0.052
3,AATGCAGG,-0.116 ± 0.0066
4,ATGCGCCG,-0.0968 ± 0.08
5,AGTGCGCA,0.101 ± 0.031
6,CAGGAGCC,-0.2301 ± 0.00044
7,ACTACGAT,-0.0337 ± 0.054
8,GTGGCACA,0.2734 ± 0.0017
9,AGGTTGGC,0.195 ± 0.032
10,AGTGTACC,-0.115 ± 0.11
11,GCCGGCGC,0.0659 ± 0.035
12,CTGGTTCC,-0.0536 ± 0.033
13,CTTTTTTC,-0.0179 ± 0.069
14,CCGATGAA,-0.0706 ± 0.02
15,TAGCCCGA,-0.229 ± 0.0034
16,AGAGTCCT,-0.303 ± 0.013
17,GATCCTGC,-0.0776 ± 0.014
18,CACTTATG,0.277 ± 0.0068
19,GACCCAGA,-0.0686 ± 0.065
20,CCCGAAGC,-0.0227 ± 0.017
21,TACTGCCA,-0.0957 ± 0.0099
22,CGCGGGAG,0.0945 ± 0.013
23,TCTTCTCA,0.15 ± 0.017
24,ATTAAAAC,-0.0388 ± 0.015
25,GCGCCAAC,0.311 ± 0.00062

row,Sequence,PBM E-score of 8-mer
1,ACCAGAGT,0.0116 ± 0.026
2,ACAGTAAC,0.186 ± 0.054
3,CCCCTAGC,-0.164 ± 0.0039
4,GGCACGCA,0.0601 ± 0.003
5,CACTGCTA,0.137 ± 0.054
6,ACGCGGGG,-0.029 ± 0.024
7,AACTAGTG,0.0506 ± 0.076
8,CGTCCGAG,-0.212 ± 0.043
9,AGACCTAG,-0.307 ± 0.0034
10,CAATCCTA,-0.0617 ± 0.0016
11,AGTCGGGG,-0.135 ± 0.071
12,GGCTGACC,-0.159 ± 0.018
13,ATAGGCGA,0.081 ± 0.0078
14,CGTTAGTA,0.0504 ± 0.0066
15,GATAACCA,-0.0849 ± 0.004
16,AACAATCG,0.104 ± 0.077
17,CGGTCTAC,-0.1 ± 0.071
18,TCGGAGAA,-0.123 ± 0.034
19,CGACGAGC,-0.129 ± 0.077
